Results from paper PMC7819943, “Rice protein-binding microarrays: a tool to detect cis-acting elements near promoter regions in rice”.
This is one part of the list.

Target: T1, OsWOX13 (Oryza sativa, UniProt Q5QMM3 1-267)
T1 sequence: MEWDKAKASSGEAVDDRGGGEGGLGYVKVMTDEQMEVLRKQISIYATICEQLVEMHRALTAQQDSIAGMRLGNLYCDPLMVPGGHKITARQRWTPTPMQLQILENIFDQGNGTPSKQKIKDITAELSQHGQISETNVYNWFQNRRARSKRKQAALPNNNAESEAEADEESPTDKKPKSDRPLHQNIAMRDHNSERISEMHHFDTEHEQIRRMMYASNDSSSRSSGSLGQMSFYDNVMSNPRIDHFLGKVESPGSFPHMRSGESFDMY
Assay: protein-binding microarray (RPBM); PBS, 2% BSA, 51.3 ng/ul salmon testes DNA, 50 uM zinc acetate, 200 nM TF, 25 C, 1 h; high values mean tight binding
Settings: protein: recombinant; tags: N-terminal polyhistidine and DsRed monomer fusion (pET32a); label: CyDye5-dUTP incorporated in the synthesized complementary strand; 3' TTTTT single-stranded linker to array surface; dsDNA, one strand shown
Method in brief: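 Transcription factors were each fused at the N-terminus to a polyhistidine tag plus DsRed and expressed in E. coli BL21-CodonPlus before Ni–NTA purification. Binding to a double-stranded custom Agilent array was carried out with 200 nM protein at 25 °C for 1 h in PBS, 2% BSA, salmon testes DNA and 50 µM zinc acetate. The binding signal is per-feature fluorescence intensity, in arbitrary units, on an Axon 4000B scanner.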

Sequence | binding signal
CCATTTCAACAGTTAATTTAGGCTATTTTGGCTTCAATCCCGGAGTCACCTAGTGCAG | 4180 fluorescence intensity (a.u.)
GGCTCTCTGATTTGTTTGCGTTTGTGCAGCGCGTCTTCCCCGGAGTCACCTAGTGCAG | 14500 fluorescence intensity (a.u.)
ACTCTAAATTAGTGTCTAAAGACAGGGACTAAAGTTAAGTCGGAGTCACCTAGTGCAG | 9800 fluorescence intensity (a.u.)
ATTGACAGACACACCCGGTTGATGTACGTAATACTAACACCGGAGTCACCTAGTGCAG | 22600 fluorescence intensity (a.u.)
TTTAATTTTGTTTGCGATCAAGCAGTCAAAATTCTCTGACCGGAGTCACCTAGTGCAG | 18700 fluorescence intensity (a.u.)
GGATTGATGAAAGAATTCTGTGGACTTGGTTCTTTGATGGCGGAGTCACCTAGTGCAG | 8550 fluorescence intensity (a.u.)
GCTTGTCCTTTTCAATTAGACATGTTGACATGGCAGTAGGCGGAGTCACCTAGTGCAG | 5480 fluorescence intensity (a.u.)
GACGGATTGAATCGAGGCTTACCAAAACTAGGCATAGGCACGGAGTCACCTAGTGCAG | 5640 fluorescence intensity (a.u.)
CTTTAACATAGATCTAATTGGCTTGAGTCAAACAAGAACACGGAGTCACCTAGTGCAG | 17200 fluorescence intensity (a.u.)
CCTACTAACTCAATCTATAAATATAAGCATTTCTAGGTGCCGGAGTCACCTAGTGCAG | 3470 fluorescence intensity (a.u.)
TATATATATATATATATATATATATATATAAAACACAAATCGGAGTCACCTAGTGCAG | 3700 fluorescence intensity (a.u.)
GGTTGTAATAACGTGTAATTAATTGAGTTTTAATTATTTCCGGAGTCACCTAGTGCAG | 12900 fluorescence intensity (a.u.)
TTTAACAATATTGTCAATTTACCAAAATTTTGATATTGCTCGGAGTCACCTAGTGCAG | 14200 fluorescence intensity (a.u.)
ACTTTTATCACTGTCCATCTCCTCTATGCCGTGGACATGACGGAGTCACCTAGTGCAG | 3240 fluorescence intensity (a.u.)
GTGCAAAATGATTAGAAGACCAAGAGAGTAGACTCGGTCACGGAGTCACCTAGTGCAG | 11800 fluorescence intensity (a.u.)
CACTAATAATTTGCACCATTGATTTTAGTACGTTGTAGTTCGGAGTCACCTAGTGCAG | 33600 fluorescence intensity (a.u.)
ACACATAGGTAATTAAGATTAATTGCGATCGAGATCATATCGGAGTCACCTAGTGCAG | 33900 fluorescence intensity (a.u.)
TGCTCGTGATTGCAAATAATTCGCAACGCTACAGTAATCTCGGAGTCACCTAGTGCAG | 6770 fluorescence intensity (a.u.)
ATCTTCTTGTAAATATTTAATTATAACGGATATAACAGTGCGGAGTCACCTAGTGCAG | 3580 fluorescence intensity (a.u.)
ACTGATTGTCCAGCGCTATTCTGTTATGTGTGATTTTAACCGGAGTCACCTAGTGCAG | 36500 fluorescence intensity (a.u.)
ATTGATTTCTATTTGTGAATCTCCATCTAAAGTTGGTGAACGGAGTCACCTAGTGCAG | 32500 fluorescence intensity (a.u.)
GTACCATTGATCATATCTATGATTTGATTCTTTTATAAATCGGAGTCACCTAGTGCAG | 3560 fluorescence intensity (a.u.)
AATCTTTTCTTAATTCTATAATTATCCTTAACGAATTAGTCGGAGTCACCTAGTGCAG | 4150 fluorescence intensity (a.u.)
AAGTAAATTTAAATCTCAATCCAATAATATAACTTTTAATCGGAGTCACCTAGTGCAG | 6270 fluorescence intensity (a.u.)
CTTAAATAATTTCATTAGATCACTTAACGCCTAAATTACTCGGAGTCACCTAGTGCAG | 12700 fluorescence intensity (a.u.)
GGTAATTTCACGTTATTGTACTTGCCCTAAGGCAAGTGCTCGGAGTCACCTAGTGCAG | 9570 fluorescence intensity (a.u.)
GAAATTGATTTATCCAGGGAAACTGTCGTGACAAATTTCGCGGAGTCACCTAGTGCAG | 49300 fluorescence intensity (a.u.)

Sequence | binding signal
CTGAACTTAATTAGTGGTTGCCACAGAATCAATAAGCTCCCGGAGTCACCTAGTGCAG | 14600 fluorescence intensity (a.u.)
GGAAGAATATAATGATTGCCACTTGTTCAGATGTAAAATCCGGAGTCACCTAGTGCAG | 4780 fluorescence intensity (a.u.)
CTTAATTGCACCGGAGTTTCGTGCCGAACAGACCTGCCAGCGGAGTCACCTAGTGCAG | 44300 fluorescence intensity (a.u.)
ATTGATTTATTGCTATAAATGCACCCCATCCTTTCACTTACGGAGTCACCTAGTGCAG | 33100 fluorescence intensity (a.u.)
ATCAAAATTGACTCCTATTCTCGTAGAGTCGTATGGTGGCCGGAGTCACCTAGTGCAG | 23100 fluorescence intensity (a.u.)
CTATTTTAAAGATTGATCTGATTTTAGAAATAGCAACGTTCGGAGTCACCTAGTGCAG | 9470 fluorescence intensity (a.u.)
AATAATTGAAATACTAAAGTGGGAGAGAGAAATAATCCTTCGGAGTCACCTAGTGCAG | 27600 fluorescence intensity (a.u.)
ACTATAGTCAAAATTTAAATTTTCAGAATGTAATTTTGGACGGAGTCACCTAGTGCAG | 3820 fluorescence intensity (a.u.)
ATGTAATTTTCCGTGTCTATACTTATTTGGTCCAAGAAATCGGAGTCACCTAGTGCAG | 7200 fluorescence intensity (a.u.)
ACACTAAATTAATGTATGCAATGTCCATTGGTAAATAACTCGGAGTCACCTAGTGCAG | 14900 fluorescence intensity (a.u.)
TTTATAAATTATTTAATAAATTATTATTAGAATTTATATTCGGAGTCACCTAGTGCAG | 10100 fluorescence intensity (a.u.)
CCATAATTTTGCAAAGACATCAAACCAAATAAAACCAATGCGGAGTCACCTAGTGCAG | 6680 fluorescence intensity (a.u.)
TGTTGACAGTTACAGAGACTGGAGTAAGCTGGACGGCATACGGAGTCACCTAGTGCAG | 13800 fluorescence intensity (a.u.)
TCTGTTTGATGGGCTACTATAATTAGTAGCAGAAAATGCACGGAGTCACCTAGTGCAG | 7260 fluorescence intensity (a.u.)
AGCAAATTTAAATTTGATAGTATAGAATTGGTTCTGAGGTCGGAGTCACCTAGTGCAG | 52400 fluorescence intensity (a.u.)
CTCTAATTAATCCTAAAGCAGTGATATGCTTGATGAAGCACGGAGTCACCTAGTGCAG | 26700 fluorescence intensity (a.u.)
ATGTTAATATAAATGCTAAATCAATTATGTGAGTGAATTACGGAGTCACCTAGTGCAG | 6700 fluorescence intensity (a.u.)
AAGCTTGATGGAAACCTTGGTCATCTGGAGAGTTTTGGGCCGGAGTCACCTAGTGCAG | 5580 fluorescence intensity (a.u.)
AATTTAGAATTTTAATCCTGTAATTGAAAATTTGGTAAAACGGAGTCACCTAGTGCAG | 4810 fluorescence intensity (a.u.)
TATTTGTCACATCAATCACTTCTAATTCAAAATTTTCTTTCGGAGTCACCTAGTGCAG | 14300 fluorescence intensity (a.u.)
GTGTGATTTGCTAATTGGGTTTGTTATGAAGCTGGTTATCCGGAGTCACCTAGTGCAG | 54000 fluorescence intensity (a.u.)
TAAAATTAATAGAGATCGTGGGAACAAATCCTTTTACATACGGAGTCACCTAGTGCAG | 4200 fluorescence intensity (a.u.)
ATTACCAAATTTGGTCGTTAACACATACAAGTTACTCCCTCGGAGTCACCTAGTGCAG | 6930 fluorescence intensity (a.u.)
AAAATACTTAATTTACTATGATAAGCACGTCAATAATCAGCGGAGTCACCTAGTGCAG | 8700 fluorescence intensity (a.u.)
ATGTAGATTAGAACTTTTGACTTTATTGCATCAACTAGTGCGGAGTCACCTAGTGCAG | 15800 fluorescence intensity (a.u.)
CGGCTGATAATTAAGCTAACAACTTACTGTGACTGACTTGCGGAGTCACCTAGTGCAG | 13900 fluorescence intensity (a.u.)
ACAGATTAATTAGGCTTAATATATTCATATCGCAGTTTACCGGAGTCACCTAGTGCAG | 50500 fluorescence intensity (a.u.)
